Results reported in PubChem BioAssay AID662 (National Center for Advancing Translational Sciences (NCATS), 2007).
Out of some 71,000 compounds screened, about 1,800 (2.5%) were called active. Inconclusive means that the source gave no clear call. Such entries were picked first, then a sample of the others. Calls come from the whole dose curve; as a rule, active = well fitted activation curve with a large enough effect in the signal ratio, with a control signal flat (not every such curve was filed as active); inconclusive = small, poorly fitted or top-dose-only effect, or effect the other way, or a change in a side signal; inactive = flat fitted curve, though single readings scatter; the % refers to the signal ratio. A potency beside an inconclusive call is a rough fit, not a confirmed value.

assay: Cell signaling CRE-BLA (Fsk stim); conditions: CHO CRE-bla reporter (cAMP response element driving beta-lactamase), forskolin EC10, beta-lactamase ratio; activity change, negative = inhibition: at 38.2 µM (top of the series) unless noted; for activity change, negative = inhibition: % of control where 0% means no effect
Outline: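 Modulation of forskolin-driven signalling is measured in CHO cells carrying a CRE-controlled beta-lactamase reporter. Cells are stimulated with EC10 NKH 477 in the presence of titrated compound for 3 h at 37 °C, then loaded with CCF4 for 2 h at room temperature.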
Potency is the fitted concentration of half-maximal effect; tags give direction and shape of the fitted curve.

**Q.** For c1cncc(-c2nnc(SCc3nc4ccccc4[nH]3)o2)c1, which Potency is on record?
**A.** The Potency was inconclusive: 12.6 µM [rising, partial curve].

**Q.** For Cc1nnc(Oc2ccccc2)c2ccccc12, which activity change, negative = inhibition is on record?
**A.** The activity change, negative = inhibition was inconclusive: -6.27%.

**Q.** Which activity change, negative = inhibition does the source give for COc1ccc(-n2c(=O)c(-c3ccccc3)nc3cncnc32)cc1 here?
**A.** The activity change, negative = inhibition was “inactive”.

**Q.** With CCC(C)(C(=O)Nc1ccc2c(c1)OCCO2)N(C(C)=O)c1ccc(C(N)=O)cc1 (stereo unspecified) as the molecule, how does the activity change, negative = inhibition read?
**A.** The activity change, negative = inhibition was inconclusive: -1.19%.

**Q.** For CCCCOC(=O)c1cccc(NC(=O)CC)c1, which Potency is on record?
**A.** The Potency was inconclusive: 10 µM [rising, partial curve, poor fit].

**Q.** With Cc1sc2nc(C3CC3)nc(NCCNS(C)(=O)=O)c2c1C as the molecule, how does the Potency read?
**A.** Its Potency is inconclusive: 12.6 µM [rising, single point].

**Q.** For CC1(C)Oc2ccc(C(=O)N3CCc4ccccc43)cc2N(CC(=O)N2CCCC2)C1=O, which activity change, negative = inhibition is on record?
**A.** Its activity change, negative = inhibition is inconclusive: -2.77%.

**Q.** Which activity change, negative = inhibition does the source give for CCCC(=O)Nc1cccc(-c2nc3ccccc3o2)c1 here?
**A.** Its activity change, negative = inhibition is “inactive”.

**Q.** With Cc1ccc(S(=O)(=O)NCc2ccccc2)cc1 as the molecule, how does the activity change, negative = inhibition read?
**A.** The activity change, negative = inhibition was “inactive”.

**Q.** Which activity change, negative = inhibition does the source give for COc1ccc(S(=O)(=O)Nc2ccccc2C(=O)NCc2ccco2)cc1 here?
**A.** Its activity change, negative = inhibition is “inactive”.

**Q.** For CN1C[C@@H](O)[C@@H](O)[C@@H](O)[C@@H]1CO, which activity change, negative = inhibition is on record?
**A.** The activity change, negative = inhibition was “inactive”.

**Q.** For CN1C=CC=C/C1=C(\C#N)c1nc2ccccc2[nH]1, which activity change, negative = inhibition is on record?
**A.** The activity change, negative = inhibition was “inactive”.

**Q.** Which activity change, negative = inhibition does the source give for COc1ccc(S(=O)(=O)Cc2ccc(C(=O)NC3CCCC3)o2)cc1 here?
**A.** Its activity change, negative = inhibition is “inactive”.

**Q.** For N[C@H](C(=O)O)[C@@H](O)c1cnc[nH]1, which activity change, negative = inhibition is on record?
**A.** Its activity change, negative = inhibition is inactive: -2.61% [at 7.6 µM].

**Q.** For Cc1cccc2cc(CN(CCCO)C(=O)Nc3ccccc3Cl)c(=O)[nH]c12, which Potency is on record?
**A.** The Potency was inconclusive: 12.6 µM [falling, partial curve].

**Q.** With NC(=O)c1cc(N)ccc1N1CCCC1 as the molecule, how does the activity change, negative = inhibition read?
**A.** The activity change, negative = inhibition was “inactive”.

**Q.** With CCCn1c(C)nc2c(NCCO)nc(C)nc21 as the molecule, how does the Potency read?
**A.** Its Potency is inconclusive: 10 µM [rising, partial curve].

**Q.** With CC1CCc2c(C(=O)N3CCN(S(=O)(=O)c4cccs4)CC3)csc2C1 (stereo unspecified) as the molecule, how does the activity change, negative = inhibition read?
**A.** The activity change, negative = inhibition was inconclusive: 28.5%.

**Q.** Which activity change, negative = inhibition does the source give for O=S(=O)(c1ccc(F)cc1)N1CCC(N2CCN(c3ccccc3)CC2)CC1 here?
**A.** Its activity change, negative = inhibition is inconclusive: -1.97%.

**Q.** With CCOC(=O)c1nnn(-c2nonc2N)c1-c1cccs1 as the molecule, how does the activity change, negative = inhibition read?
**A.** Its activity change, negative = inhibition is “inactive”.

**Q.** Which activity change, negative = inhibition does the source give for CCc1ccc(N2C(=O)c3sc4nnc(C)c(=O)n4c3C2=O)cc1 here?
**A.** The activity change, negative = inhibition was “inactive”.

**Q.** For CCOC(=O)C1CCCN(C(=O)c2cn(CC)c(=O)c3cc(OC)c(OC)cc23)C1 (stereo unspecified), which Potency is on record?
**A.** The Potency was inconclusive: 3.98 µM [rising, partial curve].

**Q.** For COC(=O)c1cccc(OCC(O)Cn2cnc3cc(C)c(C)cc32)c1 (stereo unspecified), which Potency is on record?
**A.** Its Potency is inconclusive: 0.0794 µM [falling, single point].

**Q.** For CC(C)(C)C(=O)[C@H]([C@@H](c1ccccc1)N1CCOCC1)N1CCOCC1, which activity change, negative = inhibition is on record?
**A.** The activity change, negative = inhibition was inactive: 1% [at 7.6 µM].

**Q.** For COc1ccc(N2C(=O)C3CCCN3C2c2cc(OC)c(OC)cc2OC)cc1 (stereo unspecified), which activity change, negative = inhibition is on record?
**A.** The activity change, negative = inhibition was inconclusive: 28.6%.

**Q.** Which activity change, negative = inhibition does the source give for Cc1ccc(NC(=O)CSc2nnc(Cc3cccn3C)n2-c2ccc(F)cc2)cc1 here?
**A.** The activity change, negative = inhibition was inconclusive: -15.5%.

**Q.** With COCC(C)NC(=O)c1noc2c1CCc1cc(OC)ccc1-2 (stereo unspecified) as the molecule, how does the activity change, negative = inhibition read?
**A.** Its activity change, negative = inhibition is “inactive”.

**Q.** For O=C(C1CC1)N1CCc2cc(S(=O)(=O)N(CCO)Cc3ccccc3)ccc21, which Potency is on record?
**A.** Its Potency is inconclusive: 6.31 µM [rising, partial curve].

**Q.** With COc1cccc(C2=CC(c3cccc(OC)c3OC(F)F)n3nnnc3N2)c1 (stereo unspecified) as the molecule, how does the activity change, negative = inhibition read?
**A.** Its activity change, negative = inhibition is inconclusive: 11.6%.

**Q.** For N#Cc1nc(-c2ccc(OCc3ccccc3Cl)cc2)oc1NCCCn1ccnc1, which Potency is on record?
**A.** Its Potency is inconclusive: 0.631 µM [rising, full curve, poor fit].

**Q.** With CCCCN1CN(S(=O)(=O)c2cccs2)c2nc3ccccc3nc21 as the molecule, how does the Potency read?
**A.** Its Potency is inconclusive: 3.98 µM [rising, partial curve].

**Q.** For CCOC(=O)N1CCN(CC(=O)Nc2c(C(=O)OC)[nH]c3cccc(Cl)c23)CC1, which activity change, negative = inhibition is on record?
**A.** The activity change, negative = inhibition was inconclusive: 0.287%.

**Q.** With CCOC(=O)N1CCC(NC(=O)c2cccnc2SC)CC1 as the molecule, how does the activity change, negative = inhibition read?
**A.** The activity change, negative = inhibition was “inactive”.

**Q.** With O=C1c2ccccc2C(=O)C1c1ccncc1 as the molecule, how does the activity change, negative = inhibition read?
**A.** Its activity change, negative = inhibition is inconclusive: 18.3%.

**Q.** For CN(C)S(=O)(=O)NC(c1ccccc1)c1ccccc1, which activity change, negative = inhibition is on record?
**A.** Its activity change, negative = inhibition is inconclusive: -2.99%.

**Q.** Which activity change, negative = inhibition does the source give for CCc1nnc(NC(=O)CSc2nnc(COc3ccccc3)n2-c2ccc(C)cc2)s1 here?
**A.** The activity change, negative = inhibition was “inactive”.

**Q.** For Cc1cc(C)c(C(=O)CSc2nnc(-c3ccccc3Br)o2)cc1C, which activity change, negative = inhibition is on record?
**A.** Its activity change, negative = inhibition is “inactive”.

**Q.** With COc1cc2ncnc(Nc3cccc(Br)c3)c2cc1OC as the molecule, how does the Potency read?
**A.** The Potency was inconclusive: 10 µM [rising, partial curve].

**Q.** Which Potency does the source give for CCOC(=O)c1nn(-c2ccccc2)c(C#N)c1NC(=O)c1nn(CC)cc1Br here?
**A.** Its Potency is active: 1.58 µM.

**Q.** Which activity change, negative = inhibition does the source give for Cc1ccc(N(Cc2ccccc2)Cc2ccccc2)cc1 here?
**A.** The activity change, negative = inhibition was inconclusive: 27.2% [at 7.6 µM].

**Q.** With CC(=O)c1sc(Nc2nc3ccc(F)cc3s2)nc1C as the molecule, how does the Potency read?
**A.** Its Potency is active: 12.6 µM.

**Q.** For COc1ccccc1N1CCN(CCCNc2c(C)c(=O)n(C)c(=O)n2C)CC1, which activity change, negative = inhibition is on record?
**A.** Its activity change, negative = inhibition is “inactive”.

**Q.** With CCOC(=O)N1CCC(N(C(=O)Nc2ccc(Cl)c(Cl)c2)C(C)CC)CC1 (stereo unspecified) as the molecule, how does the Potency read?
**A.** The Potency was inconclusive: 31.6 µM [falling, single point].

**Q.** For CCc1ccc2[nH]c(=O)c(CN(CCO)C(=O)NCc3ccccc3)cc2c1, which activity change, negative = inhibition is on record?
**A.** The activity change, negative = inhibition was “inactive”.

**Q.** Which Potency does the source give for CC(C)CCSc1nc(N2CCOCC2)c2c(c1C#N)CC(C)(C)OC2 here?
**A.** Its Potency is inconclusive: 3.16 µM [rising, partial curve].

**Q.** For CCOCCn1c(N(C)Cc2ccccc2)nc2c1c(=O)[nH]c(=O)n2C, which activity change, negative = inhibition is on record?
**A.** Its activity change, negative = inhibition is inconclusive: 24.4%.

**Q.** With O=C(CSc1nnc(Cc2cccs2)n1Cc1ccco1)Nc1cc(Cl)cc(Cl)c1 as the molecule, how does the activity change, negative = inhibition read?
**A.** Its activity change, negative = inhibition is inconclusive: -11.9%.

**Q.** Which activity change, negative = inhibition does the source give for COc1ccc(-c2cc(C(=O)NC(C)C)no2)cc1 here?
**A.** The activity change, negative = inhibition was “inactive”.

**Q.** With CN(C(=O)c1ccccc1)c1nc2ccccc2s1 as the molecule, how does the activity change, negative = inhibition read?
**A.** Its activity change, negative = inhibition is “inactive”.

**Q.** With Cc1cc(NC(=O)CSc2ccc3nnc(-c4cccs4)n3n2)no1 as the molecule, how does the Potency read?
**A.** The Potency was active: 10 µM.

**Q.** For C[C@H](CN(C)C)C(=O)c1ccccc1C(=O)O, which activity change, negative = inhibition is on record?
**A.** The activity change, negative = inhibition was inactive: -14.5% [at 7.6 µM].

**Q.** For CC(=O)Oc1cc2oc(=O)c3c(c2cc1Cl)CCC3, which activity change, negative = inhibition is on record?
**A.** The activity change, negative = inhibition was “inactive”.

**Q.** With O=S(=O)(Nc1ccc(Cl)c(C(F)(F)F)c1)c1cnc[nH]1 as the molecule, how does the activity change, negative = inhibition read?
**A.** Its activity change, negative = inhibition is inconclusive: 12.9%.

**Q.** Which activity change, negative = inhibition does the source give for CCOC(=O)C1=C(C)NC(=O)NC1c1ccc(Br)s1 (stereo unspecified) here?
**A.** The activity change, negative = inhibition was “inactive”.

**Q.** With COc1cccc(Cn2c(=O)c(-c3ccc(Cl)cc3)nc3cncnc32)c1 as the molecule, how does the Potency read?
**A.** Its Potency is active: 10 µM.

**Q.** With C=CCn1c(SCc2ccc(C#N)cc2)nnc1-c1cccc(OC)c1 as the molecule, how does the activity change, negative = inhibition read?
**A.** The activity change, negative = inhibition was “inactive”.
